# Reference: PubChem BioAssay AID493208 (National Center for Advancing Translational Sciences (NCATS), 2011)
# Hit rate of the full screen: of about 44,000 compounds, about 340 (0.77%) were called active. About 5% were inconclusive and are not listed. The call rests on the fitted dose curve; in most records, active means well fitted inhibition curve with a large enough effect; inconclusive means small, poorly fitted or top-dose-only effect; inactive means flat fitted curve, though single readings scatter. The list shows a part of the results.
# Assay: Acumen qHTS Assay for Inhibitors of the mTORC1 Signaling Pathway in MEF (Tsc2-/-, p53-/-) Cells: Sytravon; further: nearly all actives have a fitted effect of over 50% in size;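 on activity change, negative = inhibition: plate controls were DMSO for no effect and rapamycin for full effect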
# Conditions: phospho-rpS6 immunofluorescence/PI, 24 h; series mostly up to 38.3 µM; activity change, negative = inhibition: at the top concentration
# Method in brief: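 Compounds act on Tsc2-/-, p53-/- fibroblasts carrying an empty vector for 24 h before fixation and dual staining for phospho-S6 and DNA (propidium iodide). Values are percentages of cells above a rapamycin-defined pS6/PI threshold.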
# Potency means the concentration at half of the fitted maximal effect.
SMILES,"activity change, negative = inhibition",Potency
CCC(=O)Oc1c(Sc2ccc(Cl)cc2)c(C)nn1-c1ccccc1,inactive: -5.74%,
Cc1ccc(Cl)cc1N1CCN(C(=O)Cn2ncc3c4ccccc4n(C)c3c2=O)CC1,inactive: 0.0796%,
CCOc1ccc(NC(=O)CSC2=Nc3ccccc3C3=NC(CCC(=O)NCc4ccco4)C(=O)N23)cc1 (stereo not given),inactive: 0.512%,
CC1CCCN(c2nc3c(-c4ccc(Cl)cc4)nnn3c3ccccc23)C1 (stereo not given),inactive: 6.19%,
Cc1cc(Cl)ccc1NS(=O)(=O)c1c(C(=O)N2CCC(C)CC2)c(C)n(C)c1C,inactive: 5.92%,
COc1ccc2oc(=O)c(-c3nnc(-c4ccc(C)cc4)o3)cc2c1,inactive: 12.4%,
Cc1cc2c(cc1S(=O)(=O)Nc1ccc(OC(F)(F)F)cc1)OCC(=O)N2,inactive: -2.67%,
CCN(CC)S(=O)(=O)c1ccc2c(c1)N(CC(=O)NCc1ccccc1)C(=O)C1CCCCN21 (stereo not given),inactive: 0%,
O=C(NCCc1csc(-c2cccnc2)n1)c1cccc(Cl)c1,inactive: 2.21%,
CCOc1ccc(CC(=O)NCCc2sc3nc(-c4ccc(F)cc4)nn3c2C)cc1,inactive: -4.28%,
Cc1ccccc1Cn1c(SCc2ccc(C(=O)NC3CCCCC3)cc2)nc2ccncc21,inactive: -1.21%,
Cc1nc(SCc2cccc(Cl)c2)nc2c1CCCC2,inactive: -0.0966%,
CC(C)N(Cc1nc(-c2ccc(Cl)cc2)no1)C(=O)c1ccc(C(C)(C)C)cc1,inactive: -5.45%,
CC1=C(c2ccc(Cl)cc2)S(=O)(=O)N=C1N1CCN(c2cccc(C)c2C)CC1,inactive: 3.81%,
Cc1cccc(NC(=O)CSc2nc3ccc(NC(=O)c4ccccc4)cc3s2)c1,inactive: -9.81%,
COc1cccc(CN2C(=O)c3ccccc3Sc3ccc(C(=O)OCc4ccco4)cc32)c1,inactive: -2.26%,
Cc1ccc(CNc2nnc(C)c3nnn(Cc4ccc(F)cc4)c23)cc1,inactive: 2.85%,
CC(=O)N1c2ccc(S(=O)(=O)N3CCCCCC3)cc2CC1C(=O)NCc1cccc(C)c1 (stereo not given),inactive: 0%,
COc1cc(NC(=O)Cn2c(=O)cc(C)c3c(C)nn(-c4ccc(C)cc4)c32)cc(OC)c1,inactive: -7.47%,
CCOc1ccc(-c2cc3nc(C4CCN(C(=O)OC(C)(C)C)CC4)c(C(=O)Nc4cccc(CC)c4)cn3n2)cc1,inactive: 1.73%,
Fc1ccc(NCc2ccccc2-c2nnc(-c3ccccc3Cl)o2)cc1,inactive: -9.27%,
CCSc1nc2n(n1)C(c1ccc(Cl)cc1Cl)C(C(=O)Nc1ccccc1C)=C(C)N2 (stereo not given),inactive: 3.24%,
CC(C)(C)c1ccc(-c2nc(NC(=O)CSc3ncnc4sc5c(c34)CCCC5)ns2)cc1,inactive: -3.71%,
Cc1ccc(-n2ccn(CC(=O)NCCc3ccccc3)c(=O)c2=O)cc1C,inactive: 3.17%,

SMILES,"activity change, negative = inhibition",Potency
CCCCOc1ccc(C(=O)N(Cc2ccc(N(C)C)cc2)Cc2ccco2)cc1,inactive: -8.55%,
Cc1ccc(-n2ncc3c(NCc4ccccc4)ncnc32)cc1Cl,inactive: 7.55%,
CCc1ccc(NC(=O)CSc2nccn2-c2ccc(F)cc2)cc1,inactive: -22.3%,
COc1ccc(N2CC(NC(=O)/C=C\c3ccc4c(c3)OCO4)CC2=O)cc1OC (stereo not given),inactive: -1.21%,
COc1ccc(NC(=O)CN(C)S(=O)(=O)c2ccc3c(c2)CCCN3C(C)=O)cc1,inactive: 6.96%,
CCc1ccccc1NC(=O)Cn1cc(S(=O)(=O)N2CCCC2)c(S(=O)(=O)N2CCCC2)c1,inactive: 7.07%,
O=C(c1ccco1)N(Cc1cccnc1)c1nc2c(F)cc(F)cc2s1,inactive: -10.3%,
COc1ccccc1NC(=O)CSc1nncn2c1cc1sccc12,inactive: 2.05%,
CCOCCCNC(=O)C(c1ccccc1)N(Cc1ccc2c(c1)OCO2)C(=O)c1ccc(NC(C)=O)cc1 (stereo not given),inactive: 5.79%,
Cc1ccccc1CNC(=O)c1ccc2nc(SCc3ccc(F)cc3)n(C)c2c1,inactive: -0.198%,
CCC(=O)C1=C(c2ccc(F)cc2)N(C(=O)CC)n2cnnc2S1,,active: 11.7 µM
Cc1ccccc1CN1C(=O)c2ccccc2S(=O)c2ccc(C(=O)NCc3ccc(Cl)cc3)cc21 (stereo not given),inactive: 1.17%,
CCCOc1ccc(-c2cccc(NS(=O)(=O)c3ccccc3)c2)nn1,inactive: -6.24%,
CCc1ccccc1NC(=O)CN(c1ccccc1)S(=O)(=O)c1ccsc1C(=O)OC,inactive: -8.12%,
O=C(NCc1ccc2c(c1)OCO2)c1ccc2c(c1)N(Cc1ccccc1F)C(=O)c1ccccc1S2,inactive: -7.1%,
Cc1ccc2cccc(NC(=O)c3ccc(OC(C)C)cc3)c2n1,inactive: 0%,
Cc1ccc(CNC(=O)Nc2cc(C(=O)NCc3ccc(C(C)C)cc3)ccc2N2CCCC2)cc1,inactive: 0%,
CC(C)(C)OC(=O)N1CCC(c2c(C(=O)NCCN3CCc4ccccc4C3)cnn2-c2ccc(F)cc2)CC1,inactive: -5.18%,
CCCCOc1ccc(C(=O)Nc2ccc(-c3cc4ccccc4oc3=O)cc2)cc1,inactive: 3.68%,
Cc1c(Cl)cccc1NC(=O)c1ccc2c(c1)CCCN2S(C)(=O)=O,inactive: -7.15%,
CC(C)c1ccc(OCC(=O)NCCS(=O)(=O)N2CCN(c3ccc(F)cc3)CC2)cc1,inactive: 0.983%,
COc1ccccc1C(=O)N1c2ncnn2C2(CCCCC2)[C@@H]2CCCC[C@@H]21,inactive: -6.35%,
COc1ccc(Cn2c(C(=O)O)c(CNC3CCCC3)c3ccc(OC)cc32)cc1,inactive: -6.29%,
Cc1cc(C)cc(-n2c(C)cc(C(=O)C(=O)Nc3ccccc3F)c2C)c1,inactive: 0.738%,

SMILES,"activity change, negative = inhibition",Potency
CCN1C(=O)c2ccccc2Sc2ccc(NC(=O)N3CCN(c4cc(C)ccc4C)CC3)cc21,inactive: -0.235%,
CCOC(=O)c1ccc(NC(=O)C(CC)Sc2nc3ccncc3[nH]2)cc1 (stereo not given),inactive: 2.76%,
CCOc1ccc(-c2nn(-c3ccccc3)cc2C2NC(=O)NC(C)=C2C(=O)OC(C)C)cc1 (stereo not given),inactive: 11.5%,
O=C(NCC(c1ccc(Cl)cc1)N1CCOCC1)c1ccccc1F (stereo not given),inactive: -0.775%,
COc1cccc(C2CC(=O)Nc3c2c(=O)[nH]c2nc4ccccc4n32)c1 (stereo not given),inactive: -1.19%,
COc1ccc(C(=O)NCC(c2ccc3c(c2)OCO3)N2CCN(c3ccccc3F)CC2)cc1 (stereo not given),inactive: 1.18%,
O=C(COc1ccc([N+](=O)[O-])cc1)Nc1nc2c(s1)CCCC2,inactive: -6.66%,
Cc1ccccc1-c1nnn(CC(=O)Nc2sc3c(c2C#N)CCC(C(C)(C)C)C3)n1 (stereo not given),inactive: 2.54%,
CCc1ccc(NC(=O)Cn2c(=O)n(CCCCC(=O)NCCc3ccc(Cl)cc3)c(=O)c3ccccc32)cc1,inactive: -19.7%,
O=c1[nH]c2ccc(NCc3ccc(-c4ccc(Br)cc4)o3)cc2[nH]1,inactive: -23.4%,
CCOC(=O)c1c(NC(=O)c2nc(S(C)(=O)=O)ncc2Cl)sc(C(C)=O)c1C,,active: 3.69 µM
Cc1ccc2ncc(C(=O)Nc3ccc(OC(F)(F)F)cc3)c(=O)n2c1,inactive: -1.48%,
COc1cc(OC)cc(-c2nc(-c3ccc4c(c3)[nH]c(=O)n4C)no2)c1,inactive: -0.987%,
O=C1CCCc2cc(S(=O)(=O)N3CCCC(C(=O)NCc4ccc(Cl)cc4)C3)ccc2N1 (stereo not given),inactive: -0.433%,
O=C(Nc1ccccc1C(F)(F)F)n1ncc2cc(Cl)ccc21,inactive: -1.18%,
COc1ccc2cc3c(N)nn(C(=O)c4ccc(OC)c(OC)c4)c3nc2c1,inactive: 1.14%,
Cc1ccc(-c2cc(C(=O)NCc3ccccc3Cl)c3ccccc3n2)cc1C,inactive: 9.73%,
CCOC(=O)c1[nH]c2ccccc2c1NC(=O)c1ccc(Br)cc1,inactive: -27.2%,
COc1cccc(CNC(=O)C2CCN(S(=O)(=O)c3ccc4c(c3)CCCN4C(C)=O)CC2)c1,inactive: -6.95%,
CCOc1ccc(-c2nc3c(c(SCC(=O)N4CCCCC4)n2)Cc2cccc(OC)c2O3)cc1,inactive: 3.37%,
CCCn1c2ccccc2c2cnn(CC(=O)N3CCN(c4ccccc4)CC3)c(=O)c21,inactive: 0.512%,
Cc1cccc(CSc2ncc(Cl)c(C(=O)Nc3nc4ccc(F)cc4s3)n2)c1,inactive: 4.18%,
CCOc1ccc(NC(=O)c2ncoc2-c2ccco2)cc1,inactive: 0%,
COc1cc(NC(=O)Cn2cc(C(=O)c3ccc(F)cc3)c(=O)c3ccc(C)nc32)cc(OC)c1,inactive: -6.95%,

SMILES,"activity change, negative = inhibition",Potency
Cc1ccc2nc3c(cc(C#N)c(=O)n3-c3nnc(SCc4ccccc4)s3)c(=O)n2c1,inactive: -8.16%,
O=C(Cn1c(=O)nc(-c2ccccc2)c2cc(Cl)ccc21)Nc1ccc(F)c(Cl)c1,inactive: 3.01%,
CC(C)NC(=O)c1ccc(NC(=O)N2CCCCc3ccccc32)cc1,inactive: 3.22%,
COc1cccc(CNC(=O)c2ccc(-n3c(C)cc4c3CCC(C)C4)cc2)c1 (stereo not given),inactive: -13.9%,
CCN(Cc1ccccc1)C(=O)c1cnn(-c2ccc(F)cc2)c1-n1cccc1,inactive: -7.32%,
Cc1ccc(NC(=O)c2cnn3c2NC(c2ccccc2)=CC3c2ccccc2)cc1 (stereo not given),inactive: 5.14%,
CCCn1c2ccccc2c2nnc(SCC(=O)Nc3cccc(C(C)=O)c3)nc21,inactive: -13%,
COc1ccccc1OC(C)C(=O)Nc1cccc(-c2nc3ccccc3o2)c1 (stereo not given),inactive: 0.0968%,
CC(=O)c1ccc(NC(=O)Cn2nc(N3CCN(c4ccccc4)CC3)ccc2=O)cc1,inactive: -1.66%,
CC(=O)c1sc(N2C(=O)c3oc4ccccc4c(=O)c3C2c2ccc(C)cc2)nc1C (stereo not given),inactive: -0.61%,
O=C(NCc1cccnc1)c1nn(-c2ccc(F)cc2)nc1CO,inactive: -0.74%,
CCCSc1nc2c([nH]c3ccccc32)c(=O)n1C,inactive: 0.326%,
COc1ccccc1CNC(=O)CSC1=Nc2ccccc2N=C(c2ccc(F)cc2)C1,inactive: -16.5%,
CCc1ccc(NS(=O)(=O)c2ccc3[nH]cc(C(=O)NCCCOC(C)C)c(=O)c3c2)cc1,inactive: 0.967%,
Cc1ccc(Cl)cc1N1CCN(S(=O)(=O)c2ccc3c(c2)CCN3C(=O)C2CCC2)CC1,inactive: -5.66%,
CC(C)c1nc2ccc(C(=O)Nc3ccccc3F)cc2o1,inactive: 0.115%,
COc1ccc(NC(=O)c2oc3ccccc3c2NC(=O)COc2ccc(C(C)C)cc2)c(OC)c1,inactive: 1.72%,
O=C(Nc1ccccc1Cl)c1sc2cccc(Cl)c2c1Cl,inactive: 1.52%,
CCOc1cc(CNC(=O)CN2CCSc3ccccc32)cc(OCC)c1OCC,inactive: -0.996%,
COc1cccc(NC(=O)Cn2c(=O)n(Cc3ccccc3)c(=O)c3ccccc32)c1,inactive: -3.05%,
Cc1ccc(N(CC(=O)Nc2ccc(Cl)cc2)S(=O)(=O)c2cccc3nonc23)cc1,inactive: -3.71%,
CCSc1nc2n(n1)C(c1ccc(C(=O)O)cc1)C(C(=O)Nc1ccccc1C)=C(C)N2 (stereo not given),inactive: 2.75%,
CN1C(C(=O)Nc2ccc(OC(F)(F)F)cc2)=CC(c2cccs2)=NS1(=O)=O,inactive: -2.66%,
